Results: PubChem BioAssay AID1159614 (National Center for Advancing Translational Sciences (NCATS), 2016)
Among all 45,000 compounds or so, about 65 (0.1%) were called active. Calls follow the shape of the dose curve; as a rule, active = well fitted activation curve with a large enough effect; inconclusive = small, poorly fitted or top-dose-only effect; inactive = no such curve, though single readings can be large or run the other way. Some of the results follow.

Each compound was assayed against Galactocerebrosidase (Homo sapiens) (UniProt P54803) (assay: A Novel Cell-Based Assay to Identify Small Molecules for B -Galactocerebrosidase). Conditions: 145M-Twi-hGALC-G270D cells (Twitcher mouse brain line with human GALC G270D), HMU-beta-Gal fluorescence, 48 h; series mostly up to 57.5 µM; activation: at the top concentration.
In short: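 Fluorescence readout: HMU-β-gal cleavage by mutant GALC (0.1 mM final, citrate/phosphate pH 5.2 with 1 mg/mL taurocholate), stopped with carbonate/bicarbonate plus Triton X-100. Cells: murine Twitcher 145M-Twi expressing human G270D GALC; qHTS for activators.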
Also: 0% is about no effect; nearly all actives have a fitted effect of over 65% in size.

Sequence of UniProt P54803 (P54803 whole entry, looked up): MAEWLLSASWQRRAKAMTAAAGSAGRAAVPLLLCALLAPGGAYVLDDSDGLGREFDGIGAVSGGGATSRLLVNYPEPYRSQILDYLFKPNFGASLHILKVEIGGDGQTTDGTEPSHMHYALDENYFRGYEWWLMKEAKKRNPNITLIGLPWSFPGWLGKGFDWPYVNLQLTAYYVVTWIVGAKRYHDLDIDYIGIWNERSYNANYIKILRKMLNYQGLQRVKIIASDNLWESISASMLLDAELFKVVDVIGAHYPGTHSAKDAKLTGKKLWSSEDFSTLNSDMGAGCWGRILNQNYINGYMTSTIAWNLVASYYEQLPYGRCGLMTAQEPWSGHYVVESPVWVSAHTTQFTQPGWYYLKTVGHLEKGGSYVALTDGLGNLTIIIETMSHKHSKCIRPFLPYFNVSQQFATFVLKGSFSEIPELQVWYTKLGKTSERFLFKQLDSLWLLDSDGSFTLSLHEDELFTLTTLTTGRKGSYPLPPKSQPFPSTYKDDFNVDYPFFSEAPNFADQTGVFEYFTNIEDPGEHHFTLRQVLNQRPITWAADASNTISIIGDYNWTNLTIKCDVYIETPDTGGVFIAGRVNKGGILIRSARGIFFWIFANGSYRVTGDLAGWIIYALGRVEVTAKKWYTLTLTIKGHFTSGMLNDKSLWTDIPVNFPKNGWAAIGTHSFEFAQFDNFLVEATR

activation, inactive:
CCN(CC)C(=O)Cn1cc(SCC(=O)Nc2ccc(C)cc2)c2ccccc21 -24.7%, Cc1cc(C)c2c(C)c(C(=O)N3CCC(c4nc5ccccc5s4)CC3)oc2c1 -16%, Cn1cnc2c(F)c(Nc3ccc(Br)cc3Cl)c(C(=O)NOCCO)cc21 -18%, CCn1c2ccc(F)cc2c2nnc(SCCN3CCCCC3)nc21 -21.7%, Cc1cccc(CNC(=O)C2CCN(c3nc4ccc(Cl)cc4[nH]3)CC2)c1 -7.37%, Cc1ccc(C(=O)Nc2ccccc2F)cc1S(=O)(=O)N1CCOCC1 1.48%, Cc1ccc(NC(=O)CCC(=O)N2CCOc3ccccc32)c(Cl)c1 -8.52%, Cc1nc2c3ccccc3nc(NNC(=O)CCC(=O)N3CCN(c4ccccc4F)CC3)n2n1 -31.6%, COc1cc(C2c3c(oc4ccc(C)cc4c3=O)C(=O)N2Cc2ccc(F)cc2)ccc1O (stereo unspecified) -13.1%, COc1ccc(C2Nc3ccccc3-c3nnc(SC)nc3O2)cc1C (stereo unspecified) -7.44%, O=C(Nc1ccc2nc(SCC(=O)N3CCCc4ccccc43)sc2c1)c1ccc(F)cc1 -8.6%, CCCCN(CC)C(=O)Cn1c(=O)n(-c2ccc(OCC)cc2)c(=O)c2c3c(sc21)CCCC3 -10.1%, CCC(=O)N1CCCc2cc(S(=O)(=O)Nc3ccc(C)c(C)c3)ccc21 -43.7%, Cc1c(C(=O)Nc2ccc(Br)cc2F)sc2ncnc(N(C)C3CCCCC3)c12 -9.33%, Cc1nc2cccnc2n1-c1cccc(C(=O)NCCc2ccc(Cl)cc2)c1 -16.6%, N#Cc1ccccc1NC(=O)C(=O)NCC(c1ccc2c(c1)OCO2)N1CCN(c2ccccc2)CC1 (stereo unspecified) -15.6%, COc1ccc(NC(=O)CSc2nc(-c3ccccc3)nc3cc(=O)[nH]n23)cc1 -14.2%, CCOC(=O)c1cnc2c(OC)cccc2c1Nc1cccc(O)c1 -0.766%, CSc1ncc(C(=O)Nc2ccccc2C(=O)c2ccccc2)c(C)n1 -10.5%, CC(C)(C)c1ccc(NC(=O)CSc2nnc3scc(-c4ccccc4)n23)cc1 -2.33%, O=C(Nc1c(C(=O)c2ccccc2)oc2ccccc12)c1cc(=O)c2ccccc2o1 12.3%, Cn1cnc(S(=O)(=O)N2CCC(C(=O)N3CCN(c4cccc(C(F)(F)F)c4)CC3)CC2)c1 -11.8%, CCOC(=O)c1c(C)[nH]c(C)c1S(=O)(=O)NCC(=O)N(C)c1ccc(C)c(C)c1 -16.6%, Cc1nn(S(=O)(=O)c2ccc(F)cc2)c(C)c1S(=O)(=O)N1CCC(C)CC1 -5.72%, COc1ccc(NC(=O)C2CCCN(S(=O)(=O)c3ccc4c(c3)CCCC(=O)N4)C2)c(OC)c1 (stereo unspecified) -25.9%, COc1cccc2cc(C(=O)NCCc3c(C)[nH]c4ccc(Br)cc34)c(=O)oc12 19.4%, Cc1ccnc(NS(=O)(=O)c2cc(-c3cc(C)no3)ccc2C)c1 -11.3%, Cc1ccc(-n2ncc(C(=O)Nc3ccc4c(c3)OCO4)c2C2CCN(C(=O)OC(C)(C)C)CC2)cc1 -3.2%, CCc1ccc(N(CC)C(=O)Cn2c(=O)oc3ccccc32)cc1 -14.7%, CC(C)(C)NC(=O)c1cnn2c(C(F)F)cc(-c3ccccc3)nc12 -13.2%, Cc1ccc(-c2cnc(NCc3ccc(C(F)(F)F)cc3)n2C)cc1 -15%, COc1ccc(/C=C/C(=O)Nc2nc3n(n2)C(c2ccccc2)C=C(c2ccccc2)N3)cc1 (stereo unspecified) -14.8%, Cc1ccc(CCNC(=O)C2CCN(c3nnc(-n4cccc4CNc4ccc(C)cc4)s3)CC2)cc1 6.11%, CCN(C(=O)Cn1c(=O)oc2cc(Cl)ccc21)c1cccc(C(F)(F)F)c1 -10.9%, CCOC(=O)c1cc2c(=O)n3ccccc3nc2n(CC(C)C)c1=NC(=O)c1cc2ccccc2o1 -18.5%, CC(=O)c1cccc(NC(=O)CCS(=O)(=O)c2ccc(Br)s2)c1 -10.4%, O=C(CN1C(=O)CC(c2ccccc2)Sc2ccccc21)Nc1cccc(Cl)c1 (stereo unspecified) -0.295%, CCOCCn1ccc2c(OCC(=O)Nc3ccc(OC(F)(F)F)cc3)cccc2c1=O -11.1%, Clc1ccccc1CNc1nc2ccccc2c2nc(-c3cccnc3)nn12 -9.46%, COc1ccc(Cl)cc1NC(=O)c1c(NCc2sccc2C)sc2c1CCCC2 -14.9%, COCCCNC(=O)c1cc(-c2cccnc2)nc2ccc(S(=O)(=O)N3CCC(C)CC3)cc12 -2.29%, CN1C(=O)C2(c3ccccc31)N(c1cccc(F)c1)C(=O)CS2(=O)=O (stereo unspecified) -27.7%, COc1ccc(OC)c(CNS(=O)(=O)c2c(C(=O)N3CCCCCC3)c(C)n(C)c2C)c1 -19.6%, O=C(Cn1nnc(-c2ccc(Cl)cc2)n1)NCc1ccc(F)cc1 11.3%, O=S(=O)(c1ccc(Br)cc1)c1nc(-c2cccs2)oc1SCc1ccccc1F -11.3%, Cc1ccc(NC(=O)c2cnc(SCC(=O)Nc3cc(C)on3)n(C)c2=O)cc1 -3.01%, COc1ccc(Cl)cc1NC(=O)CSC1=Nc2ccccc2C2=NC(CC(=O)NCc3ccc4c(c3)OCO4)C(=O)N12 (stereo unspecified) -15.2%, Cc1ccc(CNC(=O)Cn2cc(S(=O)(=O)Cc3ccccc3F)c3ccccc32)cc1 -9.34%, COc1ccccc1N1CCN(C(=O)CCNS(=O)(=O)c2ccc3c(c2)CCN3C(=O)C2CC2)CC1 -30.4%, CCC(Oc1ccc(F)cc1)C(=O)Nc1nc(-c2ccc(F)cc2)ns1 (stereo unspecified) -3.99%, CCOC(=O)c1ccc(NC(=O)CC2C(=O)N(c3cccc(OC)c3)C(=O)N2Cc2ccc(OC)cc2)cc1 (stereo unspecified) -16.6%, C=CCc1ccccc1OCC(O)CN1CCN(c2ccccc2)CC1 (stereo unspecified) -8.77%, COc1ccccc1C(=O)Nc1ccc2c(c1)nc(CN1CCCCC1)n2C -1.62%, Cc1cc(C)n2nc(SCC(=O)Nc3cccc(C(F)(F)F)c3)nc2n1 -17.3%, CCn1c(=O)n(CC)c2cc(N3CCCCC3)c(NC(=O)Nc3ccccc3C(F)(F)F)cc21 -3.07%, Cc1sc2c(c1C)c(=O)n(-c1cccc(C(F)(F)F)c1)c(=O)n2Cc1ccc(F)cc1 0.281%, Cc1ccc(-c2nc3ccc(Cl)cn3c2Nc2ccccc2C)s1 -15.8%, COC(=O)c1ccc(NC(=O)CCc2c(C)nc3c(c2C)c(=O)n(C)c(=O)n3C)cc1 0.973%, COc1ccccc1Cc1nc2ccccc2nc1SCC(=O)Nc1cccc(Cl)c1C -18%, CC(C)c1cnc2c(c1SCC(=O)NCc1ccccc1)c(=O)n(C)c(=O)n2C -15.8%, Cc1ccccc1NC(=O)CSc1nc(=O)n(CCN2CCOCC2)c2c1CCC2 -15.2%, CN(Cc1ccccc1)C(=O)CSc1nc2ccccc2n1Cc1ccccc1F -12.5%, COc1ccc(CNC(=O)c2cnc3cc(C)ccn3c2=O)cc1 1.8%, COc1cc(NC(=O)CSC2=Nc3ccccc3N=C(c3ccc(F)cc3)C2)cc(OC)c1 -10.9%, CCCOC(=O)c1ccc(N)cc1 -8.43%, CCN1CCN(CCCNC(=O)c2cc3c(s2)-c2c(C)cccc2OC3)CC1 -7.35%, O=S(=O)(c1ccc(-c2cc(C(F)(F)F)on2)s1)N1CCN(c2cccc(Cl)c2)CC1 -5.24%, CCOc1ccccc1CNC(=O)c1[nH]c2ccccc2c1Sc1ccccc1 -24.8%, CCc1nc2ccc(C(=O)NCCc3ccc(OC)c(OC)c3)cc2nc1CC -2.05%, O=C(c1ccco1)N1CCN(c2nc3ccc(Cl)cc3s2)CC1 2.72%, CCn1ccc2cc(S(=O)(=O)N3CCC(C(=O)NCCOC)CC3)ccc21 -6.99%, Cc1ccccc1OCC(=O)Nc1ccccc1C(=O)OCc1cc(=O)n2c(C)csc2n1 -5.36%, Cc1nn2c(C(F)(F)F)cc(-c3ccc(OC(C)C)cc3)nc2c1C#N -4.16%, COc1ccc(OC)c(CCNC(=O)c2ccc3[nH]c(C)c(C)c3c2)c1 29%, COc1ccc(C(CC(=O)Nc2ccc(OC)c(OC)c2)N2Cc3ccccc3C2=O)cc1 (stereo unspecified) -15.6%, COCCn1c(C)cc(O)c(C(c2ccccc2OC)N2CCCCC2)c1=O (stereo unspecified) -10.3%, COc1cccc(CNC(=O)c2cc3c(=O)n(C)c4ccccc4c3n2C)c1 -7.43%, Cc1ccc(C)c(N2CCN(C(=O)c3cccn3-c3nnc(N4CCCCC4)s3)CC2)c1 -26.8%, O=C(Nc1cccc(C2=NCCN2)c1)Nc1cccc(C2=NCCN2)c1 -19.2% [at 23.8 µM], Cc1ccc2nc(SCc3nc(-c4ccccc4C)no3)[nH]c2c1 -36%, Cc1ccc2c(CC(=O)Nc3c(C(=O)Nc4cccc(Cl)c4)oc4ccccc34)coc2c1C -8.16%, COc1ccc2cc(CNc3ccccc3)c(=O)n(CC(=O)Nc3ccc(C)cc3C)c2c1 -10.4%, CCCCN(CC)CCNC(=O)Cn1c(=O)c2cccn2c2cccnc21 0.0423%, Cc1ccc(NC(=O)Cn2c(=O)c(C(F)(F)F)nc3ccccc32)c(C)c1 8.46%, Cc1ccccc1Cn1c(Oc2ccccc2F)nc2c1c(=O)n(C)c(=O)n2C 0.588%, Cc1ccc(Cl)cc1Nc1sc(C(=O)c2ccccc2)c(N)c1S(=O)(=O)c1ccccc1 -17%, Cc1ccc(Nc2cc(C(=O)NC3CCCC3)c3ccccc3n2)c(C)c1 -4.36%, CN(Cc1ccccc1)C(=O)Cn1ncc2c3ccccc3n(Cc3cccc(Cl)c3)c2c1=O -8.25%, COc1ccc(NC(=O)CSC2=Nc3ccccc3C3=NC(Cc4ccccc4)C(=O)N23)cc1Cl (stereo unspecified) -9.13%, COc1cc(CCC(=O)NCc2ccc3c(c2)CCN3C(=O)c2cccc(C)c2)cc(OC)c1OC -4.58%, COc1cc(C2c3c(oc4ccccc4c3=O)C(=O)N2Cc2ccccc2Cl)ccc1O (stereo unspecified) -22.6%, CCc1cnc2c(c1SCC(=O)NCc1ccccc1)c(=O)n(C)c(=O)n2C -16.1%, Cc1cc(C)c2oc(-c3cccc(NC(=O)c4cc5ccccc5o4)c3)nc2c1 -7.94%, CC(C)(C)c1ccc(C(=O)N2CC(=O)Nc3ccc(F)cc3C2c2ccc(F)cc2)cc1 (stereo unspecified) -11.4%, COc1ccc(C2=NN(CC(=O)NCc3ccccc3Cl)C(=O)CC2)cc1 -7.51%, CCOc1ccc(C(=O)Nc2ccc(-c3nc4cc(C(C)C)ccc4o3)cc2)cc1Cl -11.5%
